Drawing on the RNAGym collection of RNA variant scans (doi:10.7554/elife.90254), this text covers self-cleavage for 41 variants.

B1: OR4K15 (parent)
chain: GUUAACGGUCAUAGGCCAUGGAAACUAGGAGCACCAUUUCGCUGCCAGUGAAGAAAUGAACAAAGAAAAUCUGGGCCAGGCAGGCAUCAAAAGAAAUAGUCUUGCGCUCAACCAGAAAGUCUGUAAUCAUUUUAAGGGUA

The source gives no read counts; variants with many changes may rest on few reads.

This data set covers variants of B1. Kind of data set: self-cleavage, relative activity (ratio to wild type); higher = more cleavage; in vitro, sequencing; the parent is a self-cleaving ribozyme.
Turning to GUUAACAGUCAUAGGCCAUGGAAACUAGGAGCACCAUUUCGCUGCCAGUGAAGAAAUGAACAAAGACAAUCUGGGCCAGGCAGGCAUCAAAAGAAAUAGUCUUGCGCUCAACCAGAAAGUCUGUAAUCAUUUUGAGGGUA, the self-cleavage amounted to 2.21.
Take GUUAACAGUCAUAGGCCAUGGAAACUAGGGGCACCAUUUCGCUGCUAGUGAAGAAAUGAACAAAGAAAAUCUGGGCCAGGCAGGCAUCAAAAGAAAUAGUCUUGCGCUCAACCAGAAAGUCUGUAAUCAUUUUAAGGGUA: the self-cleavage came out at 1.26.
Under GUUAACAGCCAUAGGCCAUGGAAACUAGGAGCACCAUUUCGCUGCCGGUGAAGAGGUGAACAAAGAAAAUCUGGGCCAGGCGGGCAUCAAAGGAAAUAGUCUUGCGCUCAACCAGAAAGUCCGUAAUCAUUUUAAGGGUA stands 0.24.
Under GUUAACAGUCAUAGGCCAUGGAAACUAGGAGCACCAUUUCGCUGCCAGUGAAGAGAUGAACAAAGAAAAUCUGGGCCAGGCAGGCAUCAAAAGAAAUAGUCUUGCGCUCAACCAGAAAGUCCGUAAUCAUUUUAAGGGUA stands 0.69; under GUUAACAGUCAUAGGCCAUGGAAGCUAGGAGCACCGUUUCGCCGCCAGUGUAGAAAUGAACAAAGAAAAUCCGGGCCAGGCAGGCAUCAAAAGAAAUAGUCUUGCGCUCAACCAGAAAGUCUAUAAUCAUUUUAAGGGUU, 0.08; under GUUAACAGUCAUAGGCCAUGGAAGCUAGGAGCACCAUUUCGCUGCCAGUGAGGAAAUGAACAAAGAAAAUCUGGGCCAGGCAGGCAUCAAAAGAAAUAGUCUUGCGCACACCCAGAAAGUCUGUAAUCAUUUUAAGGGUA, 0.02.
In the case of GUUAACAGUCAUAGGCCAUGGAAACUAGGAGCACCAUUUCGCUGCCAGUGAAGAAAUGAACAAGGAAAAUCUGGGCCAGGCAGGCAUCAGAAGAAAUAGUCUUGCGCUCAACCAGAAAGUCUGUAAUCAUUUUAAGGGUA, the self-cleavage was 0.63.
Under GUUAACAGUCAUAGGCCAUGGUAACUAGGGGCACCAUUUCGCUGCCAGUGAAGAAAUGAACAAAGAAAAUCUGGGCCAGGCAGGCAUCAAAAGAAAUAGUCUUGCGCUCAACCAGAAAGUCUGUAAUCAUUUUAAGGGUA stands 0.2; under GUUAACAGUCAUAGGCCAUGGAAACUAGGAGCACCAUUUCGCUGCCAGUGAAGAAAUGAACGAAGAAAAUCUGGGCCAGGCAGGCAUCAAAAGAAAUAGUCUUGCGCUCAACCAGAAAGUCUGUAAUCAUUUUAAAGGUA, 1.42; under GUUAACAGUCAUAGGCCUAGGAAACUAGGAGCACCAUUUCGCUGCCAGUGAAGAAAUGAACAAAGAAAAUCUGGGCCAGGCAGGCAUCAAAAGAAAUAGUCCUGCGCUCAACCUGAAAGUCUGUAAUCAUUUUAAGGGUA, 0.12.
Under GUUAACAGUCAUAGGCCAUGGAAGCUAGGAGCACCAUUUCGCUGCCAGUGAAGAAGUGAACAAAGAAAAUCUGGGCCAGGCAGGCAUCAAAAGAAAUAGUCUUGCGCUCAACCAGAAAGUCUGUAAUCAUUUUAAGGGUA stands 1.18; under GUUAACAGUCAUAGGCCAUGGAAACUAGGAGCACCAUUUCGCUGCCAGUGUGGAAAUGAACAAAGAAAAUCUGGGCCAGGCAGGCAUCAUAAGAAAUAGUCUUGCGCUCAACCAGAAAGUCUGUAAUCCUUUUAAGGGUA, 1.26.
Under GUUAACAGUCAUAGGCCAUGGAAACUAGGAGCACCAUUUCGCUGCCUGUGAGGAAAUUAACAAAGAAAAUCUGGGCCAGGCAUGCAUCAAAAGGAAUAGUCUUGCGCUCAACCAGAAAGUCUGUAAUCAUUUUAAGGGUA stands 0.31.
Take GUUAACAGUCAUAGGCCAUGGAAACUAGGAGCACCAUUUCGCUGCCAGCGAAGAAGAGGACAAAGAAAAUCUGGGCCAGGCAGGCAUCAAAAGAAAUAGUCUUGCGCUCAACCAGAAAGUCUGUAAUCAUUUUAAGGGUA: the self-cleavage worked out at 1.02.
Under GUUAACAGUCAUAGGCCAUGGAGACUAGGAGCUCCAUUUCGCUGCCAGUGAAGAAAUGAACAAAGAAAAUCUGGGCCAGGCAGGCAUCAAAAGAAAUAGUCUUGCGCUCAACCAGAAAGUCUGUAAUCAUUUUAAGGGUA stands 1.97; under GUUAACAGUCAUAGGCCAUGGGAACUAGGAGCACCAUUUCGCUGCCAGUGAAGAAAUGAACAAAGAAAAUCUGGGCCAGGCAGGCAUCAAAAGAACUAGUCUUGCGCUCAACCAGAAAGUCUGUACUCAUUUUAAGGGUA, 0.56.
Under GUUAACAGUCAUAGGCCAUGGAAACUAGGAGCACCAUUUCGCUGCCGGUGAAGAAAAGAACAAAGAGAAUCUGGGCCAGGCAGGCAUCAAAAGAAAUAGUCUUGCGCUCAACCAGAAAGUCUGUAAUCAUUUUAAGGGUA stands 0.44; under GUUAACAGUCAUAGGCCAUGGAAGCUAGGAGCACCAUUUCGCUGCCAGUGAAGAAAUGAACAAAGUAAAUCUGGGCCAGGCAGGCAUCAAAAGAAACAGUCUUGCGCUCAACCAGAGAGCCUGUAAUCAUUUUAAGGGUA, 0.29.
For GUUAACAGACAUAGGCCAUGGAAACUAGGAGCACCAUUUCGCUGCCAGCGAAGAGAUGGACAAAGAAAAUCUGGGCCAGGCAGGCAUCAAAAGAAAUAGUCUUGCGCUCAACCAGAAAGUCUGUAAUCAUUUCAAGGGUA, the self-cleavage was 1.06.
On to GUUAACAGUCAUAGGCCAUGGAAACUAGGAGCACCAUUUCGCUGCCAGAGAAGAAAUGAACAAAGAAAAUCUGGGCCAGGCAGGCAUCAAAAGAAAUAGUCUUGCGCUCAACCAGAAAGUCUGUUAUCAUCUUAAGGGUA, for which the self-cleavage was determined as 1.56.
Under GUUAACAGUCAUAGGCCAUGGAAACUAGGAGCACCGUUUCGCUUCCAGUGAAGAAAUGAACAAAGAAAAUCUGGGCCAGGCAGGCAUCAAAAGAAAUAGUCUUGCGCUCAACCAGAAAGUCUGUAAUCAUUUUAAGGGUA stands 1.04; under GUUAACAGUCAUAGGCCAUGGAAACUGGGAGCACCAUUUCGCUGCCGGUGAAGAAAUGAACAAAGAAAAUCUGAGCCAGGCAGGCAUCAAAAGAAAUAGUCUUGCGCUCAACCAGAGAGUCUGUAAUCACUUUAAGGGUA, 0.07; under GUUAACAGUCAUAGGCCAUGGAAACUAGGAGCACCAUUUCGCUGCCAGUGAAGAAGUGAACAAAGAGAAUCUGGGCCAGGCAGGCAUCAAAAGAAAUAGUCUUGCGCUCAACCAGAAAGUCUGUAAUCAUUUUAAGGGUA, 1.28.
Under GUUAACAGUCAUAGGCCACGGAAACUAGGAGCACCAUUUCGCUGCCAGUGAAGAAAUGAACAAAGAAAAUCUGGGCCAGGCUGGCAUCAAAAGAAAUAGUCUUGCGCUCAACCAGAAAGUCUGUAAUCAUUUUAAGGGUA stands 0.16.
In the case of GUUAACAGUCAUAGGCCAUGGAAACUAGGAGCACCAUUCCGCUGCCAGUGGAGAAAUGAACAAAGAAAAUCUGGGCCAGGCAGUCAUCAAAAGAAAUAGUCUUGCGCUCAACCAGAAAGUCUGUAAUCAUUUUAAGGGUA, the self-cleavage stood at 0.43.
For GUUAACAGUCAUAGGCCAUGGAAACCAGGAGCACCAUCUCGCUGCCAGUGAAGAAAUGAACGAAGGAGAUCUGGGCCAGGCAGGCAUCAAAAGAAAUAGUCUUGCGCUCAACCAGAAAGUCUGUAAUCAUUUUAAGGGUA, the self-cleavage was 0.35.
Under GUUAACAGUCAUAGGCCAUGGAAACUAGGAGCACCAUUUCGCUGCCAGUGAAGAAAUGAACAAAGUAAAUCUGGGCCAGGCAGGCAUCAAAAGAAAUAGUCUUGCGCUCAACCAGAAAGUCUGUAGUCAUUUUAAGGGUA stands 1.1.
Under GUUAACAGUCAUAGGCCAUGGAAACUAGGAGCGCCAUUUCGCUGCCAGUGAAGAAAUGAACAAAGAAAAUCUGGGCCAGGCAGGCAUCAAAAGAAAUAGUCUUGCGCUCAACCAGAUAGUCUGUAAUCAUUUUAAGGGUA stands 0.63.
As to GUUAACAGUCAUAGGCCAUGGAAACUAGGAGCACCAUUUCGCUGCCAGUGAAGAAAUGAACAAAGAGAAUCUGGGCCAGGCAGGCAUCGAAAGAAAUAGUCUUGCGCUCAACCAGAAAGUCUGUAAUCAUUUUAAGGGUA, the self-cleavage amounted to 1.29.
In the case of GUUAACAGUCAUAGGCCAUGGAGCCUAGGAGCACCAUUUUGCUGCCAGUGAAGAGAUGAACAAAGAAAAUCUGGGCCAGGCAGGCAUCAAAAGAAAUAGUCUUGCGCUCAACCAGAAAGUCUGUAAUCAUUUUAAGGGUG, the self-cleavage worked out at 0.96.
Under GUUAACAGUCAUAGGCCAUGGAGUCUAGGAGCACCAUUUCGCUGCCAGUGAAGAAAUGAACAAAGAAAAUCUGGGCCUGGCAGGCAUCAAAAGAAAUAGUCUUGCGCUCAACCAGAAAGUCUGUAAUCAUUUUAAGGGUA stands 0.25; under GUUAACAGUCAUAGGCCAUGGAAGCUAGGAGCACCAUUUCGCUGCCAGUGAAGAAAUGAACAAAGAAAAUCUGGGCCAGGCAGGCAUCAAAAGAAAUAGCCUUGCGCUCAACCAGAAAGUCUGUAAUCAUUUUAAGGGUA, 1.94; under GUUAACAGUCAUAGGCCAUGGAAACUAGGAGCACCAUUUCGCUGCCAGUGAAGAAAUGAACAAAGAAAAUCUGGGCCAGGCAUGCAUCAAAAGAAAUAGUCUUGCGCUCAACCAGAAAGUCUGAAAUCAUUUUAAGGGUA, 0.35.
Under GUUAACAGUCAUAGGCCAUGGAAACUAGGAGCACCGUUUCGCUGCCAGUGAAGAAAUGAACAAAGAGAAUCUGGGCCAGGCAGGCAUCAAAAGAAAUAGUCUUGCGCUCAACCAGAAAGUCUGUAAUCAUUUUAAGGGUG stands 1.64; under GUUAACAGUCAUAGGCCAUGGAAACUAGGAGCUCCAUUUCGCUGCCAGUGAAGAAAUGCACAAAGAAAAUCUGGGCCAGGCAGGCAUCAAAAGAAAUAGUCUUGCGCUCAACCAGAAAGUCUGUAAUCUUUCUAAGGGUA, 0.38.
Under GUUAACAGUCAUAGGCCAUGGAGACUAGGAGCACCACUUCGCUGCCAGUGAAGAAAUGAACAAAGAAAAUCUGGGCCAGGCAGGCAUCAAAAGAAAUAGUCUUGCGCUCAACCAGAAAGUCUGUAAUCAUUUUAAGGGUA stands 1.39.
In the case of GUUAACAGUCAUAGGCCAUGGAAACUAGGAGCACCAUUUCGCUGCCAGUGGAGAAAUGAACAAAGAAAAUCUGGGCCAGGCAGGCAUCAAAAGAAAUAGUCUUGCGCUCAACCAGAAAGUCUGUAGUCAUUUUAAGGGUA, the self-cleavage turned out to be 1.39.
Under GUUAACAGUCAUAGGCCAUGGAAACUAGGAGCACCAUUUCGCUGCCAGUGAAGAAAUGAACAAAGAAAAUCUGGGCCAGGCGGGCAUCAAAAGAAAUCGUCUUGCGCUCAACCAGAAAGUCUGUAAUCAUUUUAAGGGUU stands 0.28; under GUUAACAGUCAUAGGCCAUGGAAACUAGGAGCACCAUUUCGCUGCCAGUGAAGAAAUGAGCAAAGAAAAUCUGGGCCAGGCAGGCAUCAAAAGGAAUAGUCUUGCGCUCAACCAGAAAGUCUGUAAUCAUUUCAAGGGUA, 1.02.
In the case of GUUAACAGCCACAGGCCAUGGAGACUAGGAGCACCAUUUCGCUGCCAGUGAAGAAAUGAACAAGGAAAAUCUGGGCCUGGCAGGCAUCAAAAGAAAUAGUCUUGCGCUCAACCAGUAAGUCUGUAAUCAUUUUAAGGGUA, the self-cleavage worked out at 0.09.
Consider GUUAACAGUCAUAGGCCAUGGAAACUAGGAGCACCAUUUCGCUGCCAGUGAAGGAAUGAACAAAGAAAAUCUGGGCCAGGCAGGCAUCAAGAGAAAUAGUCUUGCGCUCAACCAGAAAGUCUGUAAUCAUUUUAAGGGUA, for which the self-cleavage stood at 1.5.
